From paper PMC4336329 (PLoS ONE, 2015)
Among all 310,000 compounds or so, about 2,200 (0.71%) showed an effect of 50% or more. Effects have a minus sign here. The list shows a part of the results.

The compounds below were run against human ether-à-go-go-related gene (hERG) potassium channel (human, UniProt Q12809) (assay: primary screen, population patch clamp on CHO cells stably expressing hERG).
Sequence of human ether-à-go-go-related gene (hERG) potassium channel (Q12809 whole entry, looked up): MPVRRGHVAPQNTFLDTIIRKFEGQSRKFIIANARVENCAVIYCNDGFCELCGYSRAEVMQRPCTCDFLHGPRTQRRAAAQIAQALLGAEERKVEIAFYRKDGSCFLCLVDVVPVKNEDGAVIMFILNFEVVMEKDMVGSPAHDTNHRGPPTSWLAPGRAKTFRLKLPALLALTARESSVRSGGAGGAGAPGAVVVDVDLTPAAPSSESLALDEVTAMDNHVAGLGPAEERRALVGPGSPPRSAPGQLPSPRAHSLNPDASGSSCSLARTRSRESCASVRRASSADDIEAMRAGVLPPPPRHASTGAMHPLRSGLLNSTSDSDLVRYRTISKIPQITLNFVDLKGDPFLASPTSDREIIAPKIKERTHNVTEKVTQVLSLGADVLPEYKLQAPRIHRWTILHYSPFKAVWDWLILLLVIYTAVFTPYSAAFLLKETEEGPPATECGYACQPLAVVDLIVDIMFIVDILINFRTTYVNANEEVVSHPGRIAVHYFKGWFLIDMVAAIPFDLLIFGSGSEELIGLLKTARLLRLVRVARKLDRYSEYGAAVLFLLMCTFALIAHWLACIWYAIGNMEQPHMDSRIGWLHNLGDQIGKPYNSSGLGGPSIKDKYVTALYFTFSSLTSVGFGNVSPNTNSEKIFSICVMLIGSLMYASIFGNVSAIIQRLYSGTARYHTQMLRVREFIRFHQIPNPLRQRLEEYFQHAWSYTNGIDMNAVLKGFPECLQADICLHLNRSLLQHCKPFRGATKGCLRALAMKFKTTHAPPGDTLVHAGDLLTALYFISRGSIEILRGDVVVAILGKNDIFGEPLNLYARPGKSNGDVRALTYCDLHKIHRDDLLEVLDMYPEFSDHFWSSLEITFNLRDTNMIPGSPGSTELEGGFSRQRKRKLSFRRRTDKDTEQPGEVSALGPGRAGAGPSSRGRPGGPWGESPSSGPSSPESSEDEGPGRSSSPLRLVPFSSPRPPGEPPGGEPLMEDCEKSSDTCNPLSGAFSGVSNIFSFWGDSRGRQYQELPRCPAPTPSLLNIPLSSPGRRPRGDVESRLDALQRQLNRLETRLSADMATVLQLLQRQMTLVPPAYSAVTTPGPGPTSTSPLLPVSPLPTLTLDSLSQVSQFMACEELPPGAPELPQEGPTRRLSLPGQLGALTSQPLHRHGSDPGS
For `S=C(c1cn(CCOc2cccc3ccccc23)c2ccccc12)N1CCCC1`, the “hERG current change (%, negative = inhibition) at 1uM” value was -2.23%.
With `COc1ccc(NC(C)=O)cc1NC(=O)c1cccc(S(=O)(=O)N2CCc3ccccc32)c1` the “hERG current change (%, negative = inhibition) at 1uM” value was 0.977%.
In the case of `COc1ccc2cc(-c3[nH]ncc3CNCCn3nc(C)cc3C)ccc2c1`, the “hERG current change (%, negative = inhibition) at 1uM” value was -1.6%.
With `CCCCCCCC(=O)NN1CCOCC1` the “hERG current change (%, negative = inhibition) at 1uM” value was 6.58%.
`CC12CCC(=O)N1C(C(=O)NNC(=O)COc1ccccc1Cl)CS2` (stereo not shown) was tested, and the “hERG current change (%, negative = inhibition) at 1uM” value was 5.61%.
For `Cc1cccc(N(CC(=O)N2CCCC2)S(=O)(=O)c2ccccc2)c1`, the “hERG current change (%, negative = inhibition) at 1uM” value was -13.6%.
`CCc1ccc(NS(=O)(=O)c2cc(OC)ccc2OC)cc1` was tested, and the “hERG current change (%, negative = inhibition) at 1uM” value was 7.45%.
With `Cc1ccc(CCNC(=O)CSCc2ccc(F)cc2)cc1` the “hERG current change (%, negative = inhibition) at 1uM” value was 9.78%.
For `CN1CCN(c2ccc(NC(=O)c3ccc(-c4cccc([N+](=O)[O-])c4)o3)cc2)CC1`, the “hERG current change (%, negative = inhibition) at 1uM” value was 4.68%.
For `CC(=O)CSc1ncnc2c1cnn2-c1ccccc1`, the “hERG current change (%, negative = inhibition) at 1uM” value was 17.3%.
In the case of `O=C(c1ccc(F)cc1)C1CCN(C(=S)Nc2ccc(F)cc2)CC1`, the “hERG current change (%, negative = inhibition) at 1uM” value was 3.68%.
In the case of `CCn1c(SCC(=O)O)nnc1-c1ccccc1`, the “hERG current change (%, negative = inhibition) at 1uM” value was 12%.
With `Cc1ccc(Nc2nc(N)nc(CSc3nc(C)cc(C)n3)n2)cc1` the “hERG current change (%, negative = inhibition) at 1uM” value was 8.5%.
With `Cc1ccc2c(c1)NC(C(C)(C)C)CO2` (stereo not shown) the “hERG current change (%, negative = inhibition) at 1uM” value was 5.94%.
With `CC1(c2ccc(OC(F)F)cc2)NC(=O)N(CC(=O)Nc2ccc(OC(F)F)cc2)C1=O` (stereo not shown) the “hERG current change (%, negative = inhibition) at 1uM” value was -100%.
`Cc1cc(C)c(C(=O)N(CCN(C)C)CC2CCCN(Cc3ccccc3F)C2)o1` (stereo not shown) was tested, and the “hERG current change (%, negative = inhibition) at 1uM” value was -3.53%.
`CCC(C)(C)n1nnnc1C(C(C)C)N(Cc1cccnc1)Cc1ccco1` (stereo not shown) was tested, and the “hERG current change (%, negative = inhibition) at 1uM” value was 16.2%.
`Cc1ccc(S(=O)(=O)NCC(=O)N/N=C/c2ccccc2O)cc1` was tested, and the “hERG current change (%, negative = inhibition) at 1uM” value was 12%.
In the case of `Cc1ccc(N(Cc2ccc([N+](=O)[O-])cc2)C(=O)c2ccco2)cc1`, the “hERG current change (%, negative = inhibition) at 1uM” value was 12.5%.
In the case of `C/C(=N\NC(=O)CCC(=O)Nc1ccccc1)c1cccs1`, the “hERG current change (%, negative = inhibition) at 1uM” value was 17%.
With `Cc1sc(NC(=O)CSc2nnc3scc(-c4ccccc4)n23)c(C#N)c1C` the “hERG current change (%, negative = inhibition) at 1uM” value was 17.6%.
`Cc1cccc(C)c1NC(=O)C(c1ccccc1)N1CCN(C(=O)c2ccco2)CC1` (stereo not shown) was tested, and the “hERG current change (%, negative = inhibition) at 1uM” value was 6.09%.
With `O=S(=O)(c1ccccc1)N1CCN2CCCC2C1` (stereo not shown) the “hERG current change (%, negative = inhibition) at 1uM” value was 13.4%.
`O=C(N/N=C/C=C/c1ccccc1)C1CC1(c1ccccc1)c1ccccc1` (stereo not shown) was tested, and the “hERG current change (%, negative = inhibition) at 1uM” value was -7.65%.
In the case of `CN(C)c1ccc(NC(=O)CN2CCN(CC(=O)Nc3ccc(F)cc3)CC2)cc1`, the “hERG current change (%, negative = inhibition) at 1uM” value was -61.1%.
For `O=C(NCc1cccc(Cl)c1)c1ccc2ccccc2n1`, the “hERG current change (%, negative = inhibition) at 1uM” value was 6.65%.
In the case of `O=C(OCCCc1ccncc1)c1ccc(S(=O)(=O)N2CCOCC2)cc1`, the “hERG current change (%, negative = inhibition) at 1uM” value was 12.3%.
In the case of `Cc1ccnc(NC(=O)c2ccc(Cl)c(NC(=O)CCc3ccccc3)c2)c1`, the “hERG current change (%, negative = inhibition) at 1uM” value was 11.5%.
With `Br.O=C(CN1C2=NCCCN2c2ccccc21)c1ccc(Br)s1` the “hERG current change (%, negative = inhibition) at 1uM” value was -37%.
With `COc1ccc(C(=O)COC(=O)CCS(=O)(=O)c2ccc(C)cc2)c(OC)c1` the “hERG current change (%, negative = inhibition) at 1uM” value was -1.6%.
`O=C(Nc1ccc(C(=O)N2CCOCC2)cc1)c1cnn2c(C(F)F)cc(-c3ccccc3)nc12` was tested, and the “hERG current change (%, negative = inhibition) at 1uM” value was 6.5%.
For `O=C(O)COc1ccc2c3c(c(=O)oc2c1)CCCC3`, the “hERG current change (%, negative = inhibition) at 1uM” value was 11.3%.
With `CCCCSCc1[nH]c(=O)[nH]c1C(=O)CCCCC(=O)OCC` the “hERG current change (%, negative = inhibition) at 1uM” value was 4.21%.
With `CC(C)(C)Nc1nc(Cl)nc(Nc2ccccc2)n1` the “hERG current change (%, negative = inhibition) at 1uM” value was -1.81%.
In the case of `COc1ccc(C2C(C#N)=C(N)N(N(C)C)C3=C2C(=O)CCC3)cc1` (stereo not shown), the “hERG current change (%, negative = inhibition) at 1uM” value was 12.3%.
For `CCc1cccc(NC(=O)C2CCCN2S(=O)(=O)c2ccc3c(c2)n(C)c(=O)c(=O)n3C)c1` (stereo not shown), the “hERG current change (%, negative = inhibition) at 1uM” value was -0.158%.
`OC1(c2cccc(C(F)(F)F)c2)CCN(CCN2CCCCC2)CC1` was tested, and the “hERG current change (%, negative = inhibition) at 1uM” value was 16.2%.
For `Cc1ccc(-c2ccc3nnc(SCC(N)=O)n3n2)cc1`, the “hERG current change (%, negative = inhibition) at 1uM” value was 9.3%.
In the case of `CCC(=O)c1ccc(OCC(=O)Nc2nc(-c3cccnc3)cs2)cc1`, the “hERG current change (%, negative = inhibition) at 1uM” value was 6.31%.
In the case of `Cc1c(OC(C)C(=O)NCC(O)c2ccccc2)ccc2c3c(c(=O)oc12)CCCC3` (stereo not shown), the “hERG current change (%, negative = inhibition) at 1uM” value was 18.9%.
With `Cc1cc(OCC(=O)Nc2ccncc2)c(C)cc1Br` the “hERG current change (%, negative = inhibition) at 1uM” value was 11.8%.
`Cc1ccc(C)c(CN2CCCNC2=O)c1` was tested, and the “hERG current change (%, negative = inhibition) at 1uM” value was 1.83%.
With `N#Cc1cc(-c2ccccc2)nnc1Oc1ccccc1` the “hERG current change (%, negative = inhibition) at 1uM” value was 8.8%.
In the case of `COCCNC(=O)c1ccc(CSCc2cccc(Cl)c2)o1`, the “hERG current change (%, negative = inhibition) at 1uM” value was 5.84%.
`COc1ccc(N(CC(=O)NCc2ccc(Cl)cc2)S(=O)(=O)c2c(C)nn(C)c2C)cc1` was tested, and the “hERG current change (%, negative = inhibition) at 1uM” value was 5.92%.
`O=C(C(=O)N1CCOCC1)c1cn(CCCOc2ccccc2)c2ccccc12` was tested, and the “hERG current change (%, negative = inhibition) at 1uM” value was 7.81%.
In the case of `CC(C)Nc1nc2ccccc2c(=O)[nH]1`, the “hERG current change (%, negative = inhibition) at 1uM” value was 13.5%.
For `N#Cc1c(-c2ccccc2)nc(N2CCOCC2)[nH]c1=O`, the “hERG current change (%, negative = inhibition) at 1uM” value was -0.575%.
`CC(=O)Nc1ccc(C(=O)N2CC(=O)NC(=O)C2)cc1` was tested, and the “hERG current change (%, negative = inhibition) at 1uM” value was 3.53%.
For `CC(C)(C)OC(=O)N1CCCN(C(=O)Nc2ccc(OC(F)(F)F)cc2)CC1`, the “hERG current change (%, negative = inhibition) at 1uM” value was 7.78%.
For `CCOC(=O)c1ccc(N2C(=O)C=C(N3CCOCC3)C2=O)cc1`, the “hERG current change (%, negative = inhibition) at 1uM” value was 11.5%.
In the case of `CCS(=O)(=O)c1ccc(Sc2nncn2C)c([N+](=O)[O-])c1`, the “hERG current change (%, negative = inhibition) at 1uM” value was 1.66%.
`Cc1cc([N+](=O)[O-])c(NC2CCCCC2)c([N+](=O)[O-])c1` was tested, and the “hERG current change (%, negative = inhibition) at 1uM” value was 8.74%.
With `CN(CC(=O)Nc1ccc(Cl)c(C(F)(F)F)c1)C(=O)Cc1cccs1` the “hERG current change (%, negative = inhibition) at 1uM” value was 3.05%.
With `Clc1ccc2nc3c4ccccc4cnn3c2c1` the “hERG current change (%, negative = inhibition) at 1uM” value was 9.79%.
`COc1ccc(C)cc1NC(=S)N1CC(C)OC(C)C1` (stereo not shown) was tested, and the “hERG current change (%, negative = inhibition) at 1uM” value was 0.844%.
In the case of `CN(C)CCn1c2c(c(SCC(=O)Nc3cccc4ccccc34)nc1=O)CCC2`, the “hERG current change (%, negative = inhibition) at 1uM” value was 10.1%.
For `Cc1cc(-c2ccc(F)cc2)nc2cc(C(N)=O)nn12`, the “hERG current change (%, negative = inhibition) at 1uM” value was 7.87%.
